# According to PubChem BioAssay (NCATS):
# This list was built around the results that the source calls inconclusive (neither active nor inactive); the mix of calls is not that of the screen. For some assays here: A potency beside an inconclusive call is a rough fit, not a confirmed value. Calls of active or inactive are those of the source. Unless noted, the call rests on the fitted dose curve; in most records, active means well fitted curve in the direction sought with a large enough effect; inconclusive means small, poorly fitted or top-dose-only effect, or another doubt; inactive means no such curve, though single readings can be large; an effect the other way counts as inactive or inconclusive.
# Experiments:
# [1] = P-glycoprotein substrates identified in KB-8-5-11 adenocarcinoma cell line, qHTS therapeutic library screen (AID 1346987); conditions: activity change, negative = cytotoxicity: at 44.5 µM (top of the series); further: potency means the concentration at half of the fitted maximal effect; nearly all actives have a fitted effect of over 65% in size
# Summary of the method: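 Compounds are pinned in dose-response onto KB-8-5-11 cells (500 cells/well, colchicine-free medium) and left 72 h at 37 degree C. CellTiter-Glo luminescence then yields AC50 values.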
# [2] = tested on: Zika virus NS2B-NS3 protease (unlinked complex); experiment: Primary screen GU Rhodamine qHTS for Zika virus inhibitors: Unlinked NS2B-NS3 protease assay (AID 1347159); conditions: Recombinant ZIKV NS2B-NS3 protease, Rhodamine110 substrate fluorescence; series mostly up to 107 µM; further: nearly all actives have a fitted effect of over 60% in size; further: potency means the concentration at half of the fitted maximal effect
# Summary of the method: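 Buffer 10 mM Tris-HCl pH 8.0, 0.01% Tween 20. Unlinked protease 25 nM; compound preincubation 15 min, RT, protected from light. Substrate Rhod110, 1.5 microM; ~15% conversion in 15 min.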
# [3] = biological target: Cytochrome P450 2D6 (Homo sapiens) (UniProt P10635); experiment: Cytochrome P450 family 2 subfamily D member 6 (CYP2D6) small molecule antagonists: luciferase biochemical (cell-free) qHTS assay (AID 1645840; active means well fitted curve in the direction sought with a large enough effect in the repeat runs; inconclusive means weak or mixed curves; inactive means no such curve, though single readings can be large; an effect the other way counts as inactive or inconclusive; further: nearly all actives have a fitted effect of over 55% in size; further: potency means the concentration at half of the fitted maximal effect)
# Summary of the method: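 P450-Glo CYP2D6 system: proluciferin substrate converted by enzyme to luciferin, read by luminescence proportional to activity. Enzyme-substrate mix with compound 10 min at room temperature, then NADPH regeneration 1 h before detection reagent.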
# [4] = biological target: Cytochrome P450 2C9 (Homo sapiens) (UniProt P11712); experiment: Cytochrome P450 family 2 subfamily C member 9 (CYP2C9) small molecule antagonists: luciferase biochemical (cell-free) qHTS assay (AID 1645842; active means well fitted curve in the direction sought with a large enough effect in the repeat runs; inconclusive means weak or mixed curves; inactive means no such curve, though single readings can be large; an effect the other way counts as inactive or inconclusive; further: potency means the concentration at half of the fitted maximal effect; nearly all actives have a fitted effect of over 55% in size)
# Summary of the method: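 P450-Glo CYP2C9 system: proluciferin substrate with enzyme in mix containing 0.4% BSA, 10 min at room temperature, then NADPH regeneration solution added and incubated 1 h at 37C. Detection reagent stopped reaction; luminescence read after 20 min as RLU.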
# [5] = Primary qHTS for inhibitors of nuclear receptor binding SET domain protein 2 (NSD2) in an isogenic RCH-ACV NSD2 p.E1099K mutant (9B) (AID 1645876); conditions: activity change, negative = viability loss: at 44.9 µM (top of the series) unless noted; further: potency means the concentration at half of the fitted maximal effect; nearly all actives have a fitted effect of over 70% in size
# [6] = Primary qHTS for inhibitors of nuclear receptor binding SET domain protein 2 (NSD2) in an RCH-ACV wild type WT cells (2C) (AID 1645877); conditions: activity change, negative = cell killing: at 44.9 µM (top of the series) unless noted; further: nearly all actives have a fitted effect of over 70% in size; further: potency means the concentration at half of the fitted maximal effect
# [7] = Primary fluorescence-based thiol-reactive (MSTI) qHTS assay for identification of artifact compounds. (AID 1845221);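 further: potency means the concentration at half of the fitted maximal effect; thiol-reactive compounds lower the probe fluorescence signal; nearly all actives have a fitted effect of over 65% in size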
# Summary of the method: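 MSTI probe at 4 uM final in 2% DMSO/PBS pH 7.4; compounds, 1 h at room temperature in dark. Fluorescence Ex/Em 525/598 nm, normalised to Acetyl-MSTI and MSTI, fitted to 4-parameter Hill.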
# OV90 = experiment: Primary qHTS to identify gynecologic anti-cancer compounds using libraries of approved drugs and bioactive compounds (AID 1345084); conditions: Gynecologic cancer cell panel viability, ATPlite luminescence, 48 h; series mostly up to 57.5 µM; further: nearly all actives have a fitted effect of over 55% in size; further: potency means the concentration at half of the fitted maximal effect
# Summary of the method: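 Cells, 1,000 per well, plated 16 h, then exposed 48 h at 37 C to compounds. Viability by ATPlite luminescence after 15 min at room temperature.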
# [8] = biological target: Luciferin 4-monooxygenase (Photinus pyralis) (UniProt P08659); experiment: Biochemical firefly luciferase enzyme assay for NPC (AID 624030); further: potency means the concentration at half of the fitted maximal effect; nearly all actives have a fitted effect of over 70% in size
# Summary of the method: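 Counter-screen for direct inhibition of the luciferase enzyme by approved-drug library compounds, run at 10 nM enzyme in 50 mM Tris acetate (final). Luminescence was read within 5 min of enzyme-buffer addition and normalized to PTC124 versus DMSO (0%).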
# [9] = qHTS assay for small molecule disruptors of the mitochondrial membrane potential - 5 hr assay (AID 651755; calls by dose curve; further: potency means the concentration at half of the fitted maximal effect; nearly all actives have a fitted effect of over 40% in size); conditions: JC-1-type ratio dye; series mostly up to 92.2 µM
# Summary of the method: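 Seed HepG2 overnight, add compound, incubate 5 hr at 37C and 5% CO2, stain 30 min with Mito-MPS, then measure monomer (490/535 nm) and aggregate (540/590 nm) fluorescence.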
# [10] = qHTS of pediatric cancer cell lines to identify multiple opportunities for drug repurposing: Primary screen for control Hh wild type fibroblast cells (AID 1347106); further: potency means the concentration at half of the fitted maximal effect; nearly all actives have a fitted effect of over 55% in size
# Summary of the method: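 Cells (500-1,000/well) in growth media were settled 5 h at 37 degrees C, then given compounds for 48 h. Viability was read as CellTiter-Glo luminescence. Primary runs used MIPE at 11 points (0.78 nM-46 µM) and NPC at 8 points (0.59 nM-46 µM); follow-ups used 11 points.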
# [11] = tested on: Zika virus NS2B-NS3 protease; experiment: Primary screen GU AMC qHTS for Zika virus inhibitors (AID 1347154); further: potency means the concentration at half of the fitted maximal effect; nearly all actives have a fitted effect of over 70% in size
# Summary of the method: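 Unlinked Zika NS2B hydrophilic domain/NS3 protease domain noncovalent complex (25 nM final) in 10 mM Tris-HCl pH 8.0, 0.01% Tween 20, with AMC peptide substrate. Fluorescence (ex 340, em 450 nm) change over 15 min, room temperature; percent inhibition fitted to 4-parameter Hill equation.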
# [12] = biological target: Protein phosphatase 1D (Homo sapiens) (UniProt O15297); experiment: RapidFire Mass Spectrometry qHTS Assay for Modulators of WT P53-Induced Phosphatase 1 (WIP1) (AID 1347424);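 further: amount of dephosphorylated VEPPL-S-QETFS peptide product formed by WIP1; potency means the concentration at half of the fitted maximal effect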
# Summary of the method: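 Mass-spectrometric measurement of dephosphorylated peptide after a 5 min room-temperature reaction of 10 nM WIP1 with 2 uM phosphopeptide, following 1 h compound preincubation in 30 mM MgCl2 buffer.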
# [13] = biological target: Protein phosphatase 1D (Homo sapiens) (UniProt O15297); experiment: Rhodamine-PBP qHTS Assay for Modulators of WT P53-Induced Phosphatase 1 (WIP1) (AID 1347425); further: potency means the concentration at half of the fitted maximal effect
# Summary of the method: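 Read-out: Rhodamine-PBP fluorescence (ex 525/em 598 nm) for released Pi, read each minute for 11 min after adding 10 uM VEPPL-pS-QETFS; signal taken as f1 minus pre-substrate f0. Enzyme 5 nM WIP1 with 1 hr room-temperature compound preincubation.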
# [14] = A High-Content qHTS Against Drug Library for the Identification of Small Molecules that Inhibit DYT1 Early Onset Primary Dystonia-Associated Cell Pathology (AID 1645839; calls by dose curve; further: potency means the concentration at half of the fitted maximal effect)
# Summary of the method: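 Induced EGFP-delE TorsinA cells are imaged after 48 h of compound treatment. Punctate fusion-protein distribution gives the %pathology value, while nuclei counts flag toxicity. Wild-type EGFP-hTOR1A cells define the normal pattern.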
# [15] = tested on: Nanoluciferase (engineered Oplophorus gracilirostris luciferase); experiment: Primary Nanoluciferase (NLuc) qHTS assay for identification of artifact compounds. (AID 1845222); further: potency means the concentration at half of the fitted maximal effect
# Summary of the method: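 Luminescence read-out of secreted NLuc in S16 cell conditioned medium (1:55); compounds tested with 15 min RT preincubation, then Nano-Glo substrate 1:100, 5 min. % inhibition vs no-enzyme and DMSO controls, 4-parameter Hill fit.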
# Furin (Homo sapiens) = Furin (Homo sapiens) (UniProt P09958); experiment: Furin counterscreen qHTS for Zika virus inhibitors (AID 1347149)
# Summary of the method: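 Counterscreen measures cleavage of 2 microM BOC-RVRR-AMC, below its ~15 microM Km, by 5 nM full-length human furin at pH 7.0 after a 15-min compound preincubation. Inhibition derives from the 15-min fluorescence increase at 37C.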
# [16] = ZIKV-mCherry secondary qHTS for Zika virus inhibitors (AID 1347158); further: potency means the concentration at half of the fitted maximal effect
# Summary of the method: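 Percent infection is the share of Hoechst-identified Vero nuclei with mCherry signal above 450 RFU (3 SD over negative controls). Cells were infected with recombinant ZIKV-mCherry at MOI 1 after compound addition and imaged 48–72 h later.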
# [17] = tested on: Zika virus NS2B-NS3 protease (linked construct); experiment: Primary screen NINDS Rhodamine qHTS for Zika virus inhibitors (AID 1347160)
# Summary of the method: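 Aprotinin served as in-plate control. Conditions: 25 nM linked NS2B-NS3, pH 8.0 Tris buffer, titrated compounds, 15 min preincubation and 15 min reaction with 1.5 microM Rhod110 substrate at room temperature.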
# [18] = tested on: Zika virus NS2B-NS3 protease (linked); experiment: 384 well plate NINDS AMC confirmatory qHTS for Zika virus inhibitors (AID 1347163); further: potency means the concentration at half of the fitted maximal effect; nearly all actives have a fitted effect of over 50% in size
# Summary of the method: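 Fluorescence at 355/460 nm was read after 25 minutes of cleavage of 30 microM Ac-VKTGKR-AMC at room temperature, in the dark. Before substrate addition, compounds (up to 1 mM final) sat ~15 minutes with 5, 30 or 60 nM linked protease. Signals were normalized to no-enzyme and no-inhibitor wells.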
# [19] = tested on: Zika virus NS2B-NS3 protease (linked construct); experiment: 384 well plate NINDS Rhodamine confirmatory qHTS for Zika virus inhibitors (AID 1347164);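 further: fluorescence from protease cleavage of Ac-LKRR-rhodamine 110 substrate; top concentration of the series differs between compounds; nearly all actives have a fitted effect of over 65% in size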
# Summary of the method: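 Fluorescence read at ex 485 nm/em 538 nm, 25 min after adding 10 microM Ac-LKRR-Rd substrate at room temperature in the dark; signal normalized to no-enzyme and no-inhibitor controls. Enzyme final 5, 30 or 60 nM; compounds, ~15 min preincubation.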
# [20] = Tertiary RLuc qRT-PCR qHTS assay for Zika virus inhibitors (AID 1347169)
# Summary of the method: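 Luminescence read-out: live-cell Renilla luciferase substrate applied to infected Vero cells, signal measured after 1-1.5 hrs. Cells had received compound before ZIKV-RLuc (Cambodian strain, MOI 1-2) infection and were incubated 48-72 hrs at 37 degrees C.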
# [21] = biological target: Glutathione peroxidase 1 (Homo sapiens) (UniProt P07203); experiment: Primary qHTS Assay for Inhibitors of Recombinant Selenoprotein Glutathione Peroxidase 1 (GPX1) (AID 1845191); further: potency means the concentration at half of the fitted maximal effect; nearly all actives have a fitted effect of over 65% in size
# Summary of the method: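 GPX1 10 nM, GR 100 nM, GSH 1 mM, NADPH 0.5 mM, CHP 0.5 mM (final). 30-min cpd preincubation, RT. Ex340/Em450 read t=0, t=15 min.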
# Tags describe the fitted curve by direction and shape.
# Sequence of UniProt P10635 (P10635 whole entry, looked up): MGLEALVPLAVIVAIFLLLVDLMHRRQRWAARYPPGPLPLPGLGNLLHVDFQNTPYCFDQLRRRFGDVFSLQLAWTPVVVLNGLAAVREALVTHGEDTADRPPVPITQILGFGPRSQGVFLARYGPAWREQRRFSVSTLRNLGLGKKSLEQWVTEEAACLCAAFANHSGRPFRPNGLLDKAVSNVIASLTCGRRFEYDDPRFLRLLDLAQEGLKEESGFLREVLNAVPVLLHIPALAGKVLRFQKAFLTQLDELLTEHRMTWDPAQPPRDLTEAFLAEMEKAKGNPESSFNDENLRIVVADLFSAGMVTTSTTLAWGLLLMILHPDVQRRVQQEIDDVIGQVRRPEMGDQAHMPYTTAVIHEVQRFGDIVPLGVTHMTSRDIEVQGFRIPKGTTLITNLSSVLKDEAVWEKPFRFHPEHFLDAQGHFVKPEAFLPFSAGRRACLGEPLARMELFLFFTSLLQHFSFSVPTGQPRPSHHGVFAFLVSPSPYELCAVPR
# Sequence of UniProt O15297 (O15297 whole entry, looked up): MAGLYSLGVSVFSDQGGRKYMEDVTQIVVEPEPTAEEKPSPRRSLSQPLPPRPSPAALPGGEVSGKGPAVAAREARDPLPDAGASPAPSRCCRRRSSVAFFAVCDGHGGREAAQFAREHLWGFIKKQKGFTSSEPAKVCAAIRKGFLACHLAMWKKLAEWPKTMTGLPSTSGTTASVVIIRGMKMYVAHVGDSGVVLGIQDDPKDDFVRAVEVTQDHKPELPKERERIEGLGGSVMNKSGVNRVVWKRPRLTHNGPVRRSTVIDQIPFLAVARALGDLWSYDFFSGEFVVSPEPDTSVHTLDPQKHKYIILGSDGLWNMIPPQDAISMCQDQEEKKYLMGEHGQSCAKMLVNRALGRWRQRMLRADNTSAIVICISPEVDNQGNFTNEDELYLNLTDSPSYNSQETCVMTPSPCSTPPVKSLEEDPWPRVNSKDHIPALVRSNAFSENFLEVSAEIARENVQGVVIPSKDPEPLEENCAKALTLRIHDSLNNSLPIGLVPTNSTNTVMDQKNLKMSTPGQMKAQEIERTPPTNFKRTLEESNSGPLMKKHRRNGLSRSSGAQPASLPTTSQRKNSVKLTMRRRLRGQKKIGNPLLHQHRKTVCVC
# Sequence of UniProt P11712 (P11712 whole entry, looked up): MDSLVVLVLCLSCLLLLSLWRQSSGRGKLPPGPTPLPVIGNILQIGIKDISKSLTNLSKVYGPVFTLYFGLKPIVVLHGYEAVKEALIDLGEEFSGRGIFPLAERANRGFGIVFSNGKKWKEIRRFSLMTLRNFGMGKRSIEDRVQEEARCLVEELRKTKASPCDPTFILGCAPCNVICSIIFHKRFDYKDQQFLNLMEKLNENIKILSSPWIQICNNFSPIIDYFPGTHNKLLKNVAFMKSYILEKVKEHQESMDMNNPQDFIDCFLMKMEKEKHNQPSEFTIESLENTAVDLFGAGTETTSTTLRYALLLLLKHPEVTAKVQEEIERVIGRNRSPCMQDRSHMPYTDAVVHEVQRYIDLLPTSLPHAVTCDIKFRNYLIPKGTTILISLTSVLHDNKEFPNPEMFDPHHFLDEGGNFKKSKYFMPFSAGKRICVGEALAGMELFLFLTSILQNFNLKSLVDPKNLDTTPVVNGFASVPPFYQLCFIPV
# Sequence of UniProt P07203 (P07203 whole entry, looked up): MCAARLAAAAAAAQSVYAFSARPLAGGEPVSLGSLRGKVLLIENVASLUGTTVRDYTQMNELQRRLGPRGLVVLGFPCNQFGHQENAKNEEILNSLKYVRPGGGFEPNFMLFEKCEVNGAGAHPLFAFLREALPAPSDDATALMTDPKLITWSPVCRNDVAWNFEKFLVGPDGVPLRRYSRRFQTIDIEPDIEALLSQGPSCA
# Sequence of UniProt P09958 (P09958 whole entry, looked up): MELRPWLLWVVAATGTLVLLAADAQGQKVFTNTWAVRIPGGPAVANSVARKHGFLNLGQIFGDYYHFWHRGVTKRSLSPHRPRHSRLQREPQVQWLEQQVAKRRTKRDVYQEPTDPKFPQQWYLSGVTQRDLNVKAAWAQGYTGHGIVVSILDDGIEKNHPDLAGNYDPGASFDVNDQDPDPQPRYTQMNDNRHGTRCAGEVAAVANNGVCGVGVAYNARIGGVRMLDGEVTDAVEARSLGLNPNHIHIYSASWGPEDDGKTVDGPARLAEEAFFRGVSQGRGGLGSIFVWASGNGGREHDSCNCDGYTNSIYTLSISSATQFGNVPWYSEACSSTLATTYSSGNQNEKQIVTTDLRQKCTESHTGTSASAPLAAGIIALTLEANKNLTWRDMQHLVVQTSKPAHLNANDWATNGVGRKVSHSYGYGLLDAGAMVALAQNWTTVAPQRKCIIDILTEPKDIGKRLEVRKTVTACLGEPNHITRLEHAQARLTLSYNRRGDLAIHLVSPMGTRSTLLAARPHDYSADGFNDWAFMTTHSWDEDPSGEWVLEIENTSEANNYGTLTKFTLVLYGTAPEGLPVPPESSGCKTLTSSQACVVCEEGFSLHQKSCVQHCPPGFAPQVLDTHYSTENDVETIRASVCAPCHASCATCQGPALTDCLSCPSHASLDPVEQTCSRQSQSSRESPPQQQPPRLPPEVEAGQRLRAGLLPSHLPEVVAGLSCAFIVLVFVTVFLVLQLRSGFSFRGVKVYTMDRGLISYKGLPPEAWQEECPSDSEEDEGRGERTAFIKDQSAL
# Sequence of UniProt P08659 (P08659 whole entry, looked up): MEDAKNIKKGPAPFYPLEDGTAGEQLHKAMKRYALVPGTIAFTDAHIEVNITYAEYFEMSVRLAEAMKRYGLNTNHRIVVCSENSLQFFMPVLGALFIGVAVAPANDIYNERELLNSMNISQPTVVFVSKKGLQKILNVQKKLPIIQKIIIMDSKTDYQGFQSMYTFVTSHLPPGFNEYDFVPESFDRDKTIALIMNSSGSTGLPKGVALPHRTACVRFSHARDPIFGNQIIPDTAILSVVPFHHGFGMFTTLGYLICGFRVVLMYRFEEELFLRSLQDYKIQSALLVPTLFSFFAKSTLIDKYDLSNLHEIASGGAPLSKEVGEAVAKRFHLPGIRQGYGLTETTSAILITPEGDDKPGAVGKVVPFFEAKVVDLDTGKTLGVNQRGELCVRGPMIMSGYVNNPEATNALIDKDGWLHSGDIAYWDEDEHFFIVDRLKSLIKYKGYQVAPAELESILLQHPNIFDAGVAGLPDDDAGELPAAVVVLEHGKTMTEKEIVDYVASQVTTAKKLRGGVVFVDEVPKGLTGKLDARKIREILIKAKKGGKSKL
structure (smiles),measurement,setting,value
COc1ccc(-c2nc(-c3ccc(-c4cccc(Cl)c4)o3)[nH]c2-c2ccc(OC)cc2)cc1,Potency,[1],"inconclusive: 8.2 µM [inhibitor, partial curve]"
same,Potency,[2],inactive
same,Potency,[3],inactive
same,Potency,[4],"inconclusive: 6.74 µM [inhibitor, full curve]"
same,Potency,[5],"inconclusive: 18.3 µM [inhibitor, partial curve]"
same,Potency,[6],"inconclusive: 14.5 µM [inhibitor, single point]"
same,Potency,[7],active: 4.23 µM
same,Potency,OV90,inactive
Nc1ccc(N)c([N+](=O)[O-])c1,Potency,[8],"inconclusive: 46.8 µM [inhibitor, partial curve, poor fit]"
same,Potency,[9],active: 29.8 µM
same,Potency,[10],"inconclusive: 43.3 µM [cytotoxic, single point]"
same,Potency,[11],"inconclusive: 82.7 µM [inhibitor, partial curve, poor fit]"
same,Potency,[12],"inconclusive: 31.6 µM [inhibitor, partial curve]"
same,Potency,[13],"inconclusive: 44.7 µM [inhibitor, partial curve, poor fit]"
same,Potency,[14],"inconclusive: 15.8 µM [inhibitor, partial curve, poor fit]"
same,Potency,OV90,"inconclusive: 35.5 µM [cytotoxic, partial curve, poor fit]"
Cc1nc(C)c2c(n1)N(Cc1ccc(-c3ccccc3-c3nn[nH]n3)cc1)C(=O)CC2,Potency,[2],inactive
same,Potency,[4],"inconclusive: 9.52 µM [inhibitor, partial curve]"
same,Potency,[15],active: 21.3 µM
same,Potency,OV90,inactive
Cc1cccc(NC(=O)CN2CCC(c3ccccn3)CC2)c1,Potency,[3],active: 13.5 µM
same,Potency,[6],inactive
same,Potency,OV90,inactive
CC1(C)CC=C(c2cnc3ccccc3c2)c2cc(C(=O)Nc3ccc(C(=O)O)cc3)ccc21,Potency,Furin (Homo sapiens),active: 44.1 µM
same,Potency,[16],"inconclusive: 6.31 µM [inhibitor, full curve]"
same,Potency,[2],active: 1.78 µM
same,Potency,[17],active: 3.16 µM
same,Potency,[18],"inconclusive: 0.224 µM [inhibitor, full curve, poor fit]"
same,Potency,[19],inactive
same,Potency,[20],inactive
same,Potency,[3],"inconclusive: 37.9 µM [inhibitor, single point]"
same,Potency,[5],"inconclusive: 18.3 µM [inhibitor, single point]"
same,Potency,[6],"inconclusive: 16.3 µM [inhibitor, single point]"
same,Potency,[21],"inconclusive: 20.2 µM [inhibitor, single point]"
same,Potency,OV90,inactive
